The subject of this assay is K98450-129-R-PDC multicell spheroids, viability. Briefly: Anticancer human tumor K98450-129-R-PDC patient-derived colon adenocarcinoma cell line growth inhibition [PI3K]. As to conditions: for IC50: compound alone; for viability, T/C: stronger effect = lower value. An excerpt:
Combinatorial screen of targeted agents with the PI3K inhibitors inavolisib, alpelisib, duvelisib, and copanlisib in multi-cell type tumor spheroids
A high-throughput screen of multi-cell type tumor spheroids was designed to identify active combinations of targeted small molecules and PI3K pathway inhibitors. Complex spheroids include a stromal component modeled by human endothelial cells (HUVEC) and fibroblasts modeled by human mesenchymal stem cells (MSCs). The concentration ranges selected for each drug and investigational agent were based upon clinically achievable concentrations if the clinical Cmax of the agent was known.
Compounds. The drugs and investigational agents: inavolisib (NSC800729), alpelisib (NSC765974), duvelisib (NSC772469), copanlisib (NSC816437), ipatasertib (NSC767898), afuresertib (NSC778305), talazoparib (NSC767125), sapanisertib (NSC764658), selumetinib (NSC741078), tovorafenib (DAY101, NSC766906), vemurafenib (NSC761431), ravoxertinib (NSC781343), sotorasib (NSC818433), MRTX1133 (NSC 836407), abemaciclib (NSC 768073), palbociclib (NSC758247), venetoclax (NSC 766270), SY5609 (NSC837396), enzalutamide (NSC755605), and darolutamide (NSC825331), were obtained from the National Cancer Institute (NCI) Developmental Therapeutics Program Chemical Repository. The FDA-approved anticancer drug set is available from the NCI Developmental Therapeutics Program. […] The stock solutions were prepared in dimethyl sulfoxide (DMSO, Sigma-Aldrich, St. Louis, MO, cat. D2650) at 800-fold the tested concentration and stored at -70 degrees C prior to their use. All drugs and investigational agents were tested over a range starting from a high concentration at or near the clinical Cmax and decreasing in half-log increments. If the clinical Cmax for an agent had not been determined, the highest concentration tested was 10 microM.
Cell Culture. All cells were maintained in an incubator at 37 degrees C and 5% CO2 with 95% humidity. The PDC lines were cultured according to standard operating procedures established by the NCI PDMR (https://pdmr.cancer.gov/sops/default.htm). All PDCs were thawed and cultured in Matrigel-coated flasks prepared with a working solution of 1X Ham's F-12 nutrient mix, without supplementation (Invitrogen, Waltham, MA, cat. 11765054), 100 U/mL penicillin-streptomycin (Invitrogen, cat. 15140122), and 2.5% Matrigel (Corning Inc., Corning, NY, cat. 354248) for the first three passages. The 354836-022-R-J1-PDC, 475296-252-R-J1-PDC, and 997726-040-R-J2-PDC lines were cultured in 6A media, which includes advanced DMEM/F-12 (Thermo Fisher Scientific, cat. 12634028), 10 mM HEPES (Thermo Fisher Scientific, cat. 15630080), 1X GlutaMAX supplement (Thermo Fisher Scientific, cat. 35050061), 0.1 mg/mL primocin (InvivoGen, San Diego, CA, cat. ant-pm-2), 10% defined fetal bovine serum, heat inactivated (HyClone Laboratories Inc., Logan, UT, cat. SH30070.03HI), 50% L-WRN conditioned media (ATCC, cat. CRL-3276), 1.25 mM N-Acetyl-L-cysteine (Sigma-Aldrich, cat. A9165), 10 mM nicotinamide (Sigma-Aldrich, cat. N0636), 1X B-27 supplement (Thermo Fisher Scientific, cat. 17504044), 1X N-2 supplement (Thermo Fisher Scientific, cat. 17502048), and 10 microM Y-27632 dihydrochloride (Tocris Bioscience, Bristol, United Kingdom, cat. 1254). The 624824-186-R-J2-PDC line was cultured in 6C/Colon 1B media, which includes all 6A media components plus 50 ng/mL human EGF recombinant protein (Thermo Fisher Scientific, cat. PHG0311). […]

A number of entries come with more than one value. This is not the full list of results. There may be further records. Results that share an entry are repeats across runs, samples, wells, individuals or studies.
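Also: spheroids exposed to agents for seven days before read-out.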

In general, IC50 refers to the concentration that gives 50% inhibition. The term viability, T/C denotes the ratio of treated to control. With `C=CC(=O)N1CCN(c2nc(=O)n(-c3c(C)ccnc3C(C)C)c3nc(-c4c(O)cccc4F)c(F)cc23)C(C)C1` (stereo not given), the IC50 is recorded as 3.79 µM, 4.52 µM, > 10 µM, 7.98 µM. Besides, the viability, T/C (compound alone 1 µM) was 82.4, 80, 56, 81.8%. Further, the viability, T/C (compound alone 10 µM) is 32.2, 30.4, 61.1, 50.8%.

Take `CC1(C)CCC(CN2CCN(c3ccc(C(=O)NS(=O)(=O)c4ccc(NCC5CCOCC5)c([N+](=O)[O-])c4)c(Oc4cnc5[nH]ccc5c4)c3)CC2)=C(c2ccc(Cl)cc2)C1`: the half-maximal inhibitory concentration (IC50) is 5.95 µM, 5.81 µM, 5.58 µM, > 10 µM. In addition, the viability, T/C (compound alone 10 µM) was 13.7, 8.19, 4.16, 102%.

`Cn1ncc(Cl)c1-c1cc(C(=O)NC(CN)Cc2cccc(F)c2)sc1Cl` (stereo not given): the viability, T/C (compound alone 10 µM) is given as 85.2, 94, 61.5, 74%.

With `CCCS(=O)(=O)Nc1ccc(F)c(C(=O)c2c[nH]c3ncc(-c4ccc(Cl)cc4)cc23)c1F`, the viability, T/C is, setting by setting: (compound alone 0.1 µM) 104, 107, 116, 81.5%; (compound alone 1 µM) 106, 118, 101, 91.5%; (compound alone 3.16 µM) 132, 108, 97.4, 103%.

For the molecule `Cn1ncnc1[C@H]1c2n[nH]c(=O)c3cc(F)cc(c23)N[C@@H]1c1ccc(F)cc1`, under “compound alone 0.01 µM”, the viability, T/C is on record as 99, 101, 89.6, 117%.

Source of the values: PubChem BioAssay AID1963961 (Molecular Pharmacology Branch, DTP, NCI, 2024).
